This is an account of results in publication PMC6711944.

Chains of the proteins cited; added tags and fusions are not shown. Lines headed by an entry give the natural chain unless they say otherwise; changes in a name come on top. A line that says so, or that is headed by a name, gives the form on record, which may keep a tag or linker. Residues count along the entry.
UniProt O02741: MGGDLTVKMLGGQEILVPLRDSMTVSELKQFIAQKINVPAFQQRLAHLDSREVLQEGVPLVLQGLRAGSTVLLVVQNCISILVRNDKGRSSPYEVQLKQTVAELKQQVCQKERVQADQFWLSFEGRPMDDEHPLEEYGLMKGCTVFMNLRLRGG
bISG15 with the first two linker residues (Gln76, Asn77) converted to alanine (O02741, form named): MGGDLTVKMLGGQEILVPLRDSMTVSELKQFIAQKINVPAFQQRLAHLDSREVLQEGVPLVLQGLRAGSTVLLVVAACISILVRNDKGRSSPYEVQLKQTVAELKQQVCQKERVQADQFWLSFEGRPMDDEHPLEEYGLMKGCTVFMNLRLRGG
UniProt P05161, residues 1-157: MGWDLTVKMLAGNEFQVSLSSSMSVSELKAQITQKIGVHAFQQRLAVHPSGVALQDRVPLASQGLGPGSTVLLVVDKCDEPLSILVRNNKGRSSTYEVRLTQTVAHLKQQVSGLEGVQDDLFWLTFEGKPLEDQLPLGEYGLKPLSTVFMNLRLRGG
murine ISG15 (Q64339, residues 1-155): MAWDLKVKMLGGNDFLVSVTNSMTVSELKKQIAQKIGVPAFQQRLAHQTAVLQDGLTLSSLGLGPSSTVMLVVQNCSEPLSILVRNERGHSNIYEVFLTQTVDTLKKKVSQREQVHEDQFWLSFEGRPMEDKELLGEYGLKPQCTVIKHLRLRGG
mISG15 with the first two linker residues (Gln74, Asn75) converted to alanine (Q64339, form named): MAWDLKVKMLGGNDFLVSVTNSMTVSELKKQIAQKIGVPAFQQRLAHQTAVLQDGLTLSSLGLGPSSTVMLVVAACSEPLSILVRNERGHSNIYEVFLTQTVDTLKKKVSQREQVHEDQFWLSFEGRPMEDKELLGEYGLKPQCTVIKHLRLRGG
mISG15-L10A (Q64339, form named): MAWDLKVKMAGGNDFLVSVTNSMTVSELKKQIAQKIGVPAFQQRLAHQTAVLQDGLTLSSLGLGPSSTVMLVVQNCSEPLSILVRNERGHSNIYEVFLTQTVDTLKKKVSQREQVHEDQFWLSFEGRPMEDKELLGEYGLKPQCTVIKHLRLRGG

The target of assay [1] is bovine ISG15 (bovine) (UniProt O02741). Put plainly: SEC; both purified. In general terms: SEC sorts molecules by how far they enter the pores of the column.
Assay [2] deals with human ISG15 (human) (UniProt P05161). Put plainly: SEC; both purified.
Assay [3] addresses murine ISG15 (murine) (UniProt Q64339). The assay can be described thus: SEC; both purified.
Assay [4] concerns the target bovine ISG15 (bovine) (UniProt O02741). The assay can be described thus: crystal structure; crystal structures of NS1B-NTR in complex with mISG15, cISG15 or bISG15; both purified.
The target in assay [5] is murine ISG15 (murine) (UniProt Q64339). The description is as above.
The target in assay [6] is bISG15 with the first two linker residues (Gln76, Asn77) converted to alanine (bovine) (UniProt O02741). The assay can be described thus: ITC; isothermal titration calorimetry of NS1B-NTR and ISG15 proteins; which was titrated and the conditions are not told in the text shown; both purified. Background: Isothermal titration calorimetry measures the heat released or taken up as one component is titrated into another.

Assay [7] has as its target bISG15-L10A (bovine) (UniProt O02741). The description is as above.
Assay [8] deals with mISG15 with the first two linker residues (Gln74, Asn75) converted to alanine (murine) (UniProt Q64339). Described as above.
For assay [9], the target named is mISG15-L10A (murine) (UniProt Q64339). The description is as above.

These are yes or no findings as the source states them, for the method shown. Some entries that bind do so weakly or less than the wild type.

B1: NS1B-NTR, containing the 103 N-terminal residues of NS1B (influenza B virus NS1 protein) (domain or fragment, UniProt P03502 1-103)
chain: MADNMTTTQIEVGPGATNATINFEAGILECYERFSWQRALDYPGQDRLHRLKRKLESRIKTHNKSEPENKRMSLEERKAIGVKMMKVLLFMDPSAGIEGFEPY
Regarding B1, the binding entry in assay [1], in assay [2], in [3], in assay [4], in [5] and in assay [6] was “binds” in each case. The binding entry is given as “no binding” in assay [7], “binds” in assay [8] and “no binding” in assay [9].
